Experimental data: the supplement of paper PMC3334620
Over roughly 33,000 sequences, “E-score (-0.5 to 0.5)” has its median near -0.036; the highest 2% begin near 0.37. The list shows a part of the results.

The sequences below were run against T1, Yer064c (UniProt P40041) (assay: PBM E-score (8-mer binding enrichment) (E-score (-0.5 to 0.5)); higher = stronger / more preferred TF binding; most listed sequences are background and not binding sites). Conditions: protein concentration: 200 nM; construct: GST-full length.
T1 sequence: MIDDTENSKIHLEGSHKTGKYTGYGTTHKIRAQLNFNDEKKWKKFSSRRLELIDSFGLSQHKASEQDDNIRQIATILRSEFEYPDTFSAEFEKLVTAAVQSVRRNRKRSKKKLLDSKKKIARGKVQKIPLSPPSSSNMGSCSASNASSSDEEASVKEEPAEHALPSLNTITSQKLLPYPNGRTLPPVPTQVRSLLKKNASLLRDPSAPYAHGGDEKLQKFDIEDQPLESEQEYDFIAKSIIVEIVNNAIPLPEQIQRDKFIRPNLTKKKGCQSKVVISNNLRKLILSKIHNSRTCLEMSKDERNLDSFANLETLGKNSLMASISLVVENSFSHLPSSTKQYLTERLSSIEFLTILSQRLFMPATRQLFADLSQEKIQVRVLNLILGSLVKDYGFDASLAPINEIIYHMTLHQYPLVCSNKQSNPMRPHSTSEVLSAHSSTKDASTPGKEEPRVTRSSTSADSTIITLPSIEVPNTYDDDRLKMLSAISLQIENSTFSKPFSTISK
Summary of the method: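 Using PURExpress in vitro transcription/translation, GST-tagged yeast transcription factors were made in full-length or DNA-binding-domain form. These were applied at about 100-200 nM to double-stranded universal all-10-mer Agilent arrays, and bound protein was detected with fluorescent anti-GST. Scans were normalised with masliner before the Universal PBM Analysis Suite assigned E-scores to ungapped eight-base words pooled with their reverse complements.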

Sequence	PBM E-score
AGAGCGTC	-0.104
GGCAGCTA	-0.07
AGGTCAAT	0.0938
CTATATAA	0.0598
CAGCCAAC	-0.0849
CGGACCCA	-0.176
AGCGGTAT	-0.117
AATATTCT	-0.159
CAGAACTG	0.139
AAGGCAGG	-0.192
AACGTGAG	0.0223
GGTTGAGA	0.0673
ACTGTACA	-0.0719
TAAAAAAA	0.167
AGCGTGTC	-0.0309
CGCCGACA	-0.219
CACGCCGC	-0.108
TATCTGGA	0.0749
ACTTCTAC	0.109
ACGGCTTG	-0.248
CGGTGTGC	-0.282
ATTCCTAG	0.158
AATACTGT	0.0486
AACCTGAT	0.201
CACCGGCG	-0.0504

Sequence	PBM E-score
GGCAGAGA	-0.0617
CCAGCTTA	-0.159
AATATAAG	0.248
TGACGCAA	-0.158
AACTGCAT	0.104
CAATCCTC	0.131
AATATGCT	-0.0838
ACGAATCA	0.404
CGGCCATC	-0.166
TAATGTGA	0.19
ATGGAGCC	-0.274
AGTGGGGG	-0.282
AGAAGTTG	-0.171
GTAGTTCA	0.0332
CAAGGCAC	-0.144
CTGTGGAC	0.0799
CCCCGGGC	-0.0338
GTACCTGA	0.134
TATAAGCA	-0.132
AAGCACTG	0.0399
AACTCCTA	-0.137
AGATATTG	-0.159
GAGGACTC	0.387
CCGTTTGC	-0.119
AGACGCAG	-0.0905

Sequence	PBM E-score
CTTACCGC	-0.144
CGTGAGGA	-0.121
ACTCAACA	0.314
GGACCGCA	-0.128
CTACCAAC	0.0172
AGTTACCC	0.127
GACGCTGC	-0.393
GCCAATGA	0.101
ACTAAAGA	0.108
CAGTTTTA	-0.0515
ACCCTAGA	-0.0589
CCAGGTAG	-0.139
CAGTCCAC	0.00637
CTTCAAAG	0.132
ATCAGGAT	0.0777
CAATTCGA	-0.0384
GCTTATCC	-0.223
ATGTACAG	-0.0601
CGACGTAG	-0.281
ATCCGGAT	-0.186
AGAGATGC	-0.33
ATGTCCAG	-0.233
AGAATTTC	-0.219
ATCCGGTA	0.0415
ACAACCCT	-0.107

Sequence	PBM E-score
ATTTGAAA	0.0462
GGATCGAC	-0.0538
ACCGTACG	-0.256
CCAAAGGA	-0.0837
ACATCAAA	0.0746
AGAAGTCA	0.43
AGGCGCGC	-0.364
CTCCTGCA	-0.16
ATACTGTC	-0.0124
ATGTTTAA	0.298
AGAGAACG	-0.168
GAGTCTAA	0.308
ACAAAGGG	-0.0593
CGGCTACG	-0.191
CGACAGAA	-0.0611
CGTGTTAA	5e-05
GGCACACA	0.0236
CATCCGAG	0.0429
CGTGCCAC	-0.204
GCTTTCAA	0.0808
ACAGGCTC	-0.151
ATTGCTAG	-0.117
GGAGCTCA	0.0928
GGGGTAAC	-0.0702
CGGTTCAA	0.1

Sequence	PBM E-score
AGCGTGGA	-0.217
ATCACAAA	0.15
GCCAGGGA	-0.121
CTCAGAAC	0.151
AGTCCTTA	0.304
CCGTTAAA	-0.0687
CACAGCCG	-0.0959
AACATCGA	0.00221
CAAATCGA	0.0397
ATACGTTC	-0.216
ACTCTATC	0.0568
GGTGCTTA	-0.1
CCGCAATA	-0.00287
CAACAAAG	-0.0491
GACGCCGC	-0.207
ACCCGGCA	-0.261
GATACGAA	0.0942
ACAGTACG	-0.00134
ATGCGCAT	-0.0468
ATCGGGCG	-0.206
AATAGTAC	6e-05
CGATGAGC	0.176
CGTACGAG	0.0282
CGTTTGAA	0.106
CTATGAAG	-0.158

Sequence	PBM E-score
AAGGTGGC	-0.237
GCGTGAAC	-0.0629
AGTAAAAA	0.0178
GCTCTGTA	-0.218
ATCTCCTC	-0.0714
CTACGCTC	-0.0886
AGTAGGGA	-0.081
ACGGGGGG	-0.208
AATGAACC	0.0108
ACCACCGT	0.0173
AATATTCC	0.112
CCGAATGA	0.111
CGGCGCAC	-0.361
AGCCTCAC	-0.151
CCGTCGAG	-0.0272
GCGCCCCC	-0.387
ATTTTGCG	0.00719
AAATAATT	0.023
AAGGGTTA	-0.112
AAGCACTA	0.0174
TATTGGCA	0.0198
CACTAGGA	-0.035
GCTCCTTA	0.029
AACTACGA	0.0144
TCGCCCCA	0.0165

Sequence	PBM E-score
GGAGCGCC	-0.2
CCTCCGAC	-0.0902
CCACTACC	-0.222
CCCGAGCC	-0.161
CTAACACA	0.253
ATGTTAGA	0.031
CTATTATA	0.0728
AACAGGAA	-0.16
CATCTGTC	-0.216
CCCAAATC	0.1
CCAGTCCA	-0.145
ATCACTCG	0.154
CCAGGATC	-0.0208
CCTAAAGG	-0.201
GTTTTAGA	0.16
AGCTGCAG	-0.103
AGACTGCA	0.201
AGCAGGTC	-0.237
AGTAAACG	-0.0215
CAAATCAC	0.152
AGATGCCT	-0.048
CGATGAAA	0.0671
CATATGGG	-0.0539
GCCTCCGC	-0.334
CCTCGGAC	-0.143

Sequence	PBM E-score
ACTCGACG	0.0733
GCGCCAAA	-0.188
GTCGCACA	0.0618
GCCGTCCC	-0.159
CCGATTAA	0.0747
CGTAACCC	-0.119
AATACTTC	0.00573
CATTGTCC	-0.0933
ACATCGTC	0.0853
ACCTCTAC	-0.188
GGACCCCA	-0.11
CGGTGCAG	-0.0907
CAACTTTC	-0.27
GAGAGGTA	-0.182
GTTAACAA	0.0813
CTCTTTGC	-0.0733
AACAGTTC	-0.0607
CTCGACCC	-0.0167
TATCTGAA	-0.045
AAGACGGA	0.0413
AATTTCGA	-0.0618
ATAGGAGC	-0.112
GAAGAGAA	-0.0781
CTAGACAC	0.107
GTAGATTA	0.142

Sequence	PBM E-score
TGCAGGAA	0.0166
AAAAACCG	-0.2
ATAGGCTA	-0.102
CCTAATTC	0.0319
CACCTCCA	-0.03
CACGTGCG	-0.219
TAACAACA	-0.113
ATTAGCCG	-0.106
CTTGTTGC	0.138
ACCATAGC	0.0386
AAAAATTC	-0.247
ACACGTTA	0.0113
AAAAGCAC	-0.059
CATGGGTA	0.209
ATAATCAG	0.33
CGTATGAC	0.315
GTCTGGTA	0.0342
GAGGACCC	-0.199
GGCTCGAA	-0.139
TCTACCCA	0.102
GATGAAGC	-0.151
AAGCCTGC	-0.242
CCGCTGTC	-0.226
CACGTAAG	-0.109
AAATACTA	0.0115

Sequence	PBM E-score
AAATTTGC	-0.0833
TATACCGA	0.0725
CCAGCAAA	0.0166
ATTGACAA	0.0616
CAATAGGG	-0.0435
ATAGCTGG	-0.145
AGGGGCGG	-0.302
ACCTAGCG	-0.0927
AAACCCAC	-0.0498
ACATTGTC	0.0147
CGAGTCCC	0.24
GTTTAAGA	0.245
ACAATTGA	0.042
ACGCAGAA	0.0383
ACCGCAGC	-0.157
AGTTTGAA	0.132
CTCTCAGC	-0.146
CCCGCTCG	-0.301
CCACGGGC	-0.0954
ATACCAGG	-0.0197
AGATTAAC	0.255
ATAGTACG	-0.0109
CAATGATC	0.122
ATTGGACA	-0.0986
CATCGATG	0.0682

Sequence	PBM E-score
AAGCCAAG	-0.0616
GGGCTACC	-0.191
CTGCGACA	-0.0895
CACACGGA	-0.0651
CACTAATA	0.134
AGACACCT	-0.0938
AGCATGCA	-0.0829
AGCTCTAA	-0.0169
CTCAAGAG	0.0167
ATATTGTA	0.0555
CCTTACCG	-0.202
ATGTAGAC	0.144
TAGGATGA	0.254
GTATTGTA	-0.0603
ATAGTTAG	0.155
CGGTGGAC	-0.0773
CCTCCTCC	-0.0433
GATGTGAC	0.256
CACTCGAG	0.0565
GATCGATC	-0.0475
GACATGGA	0.0166
CCTGGAGA	0.0904
CAACTACA	-0.0401
CCCTGGGA	-0.337
ATGTACCA	-0.194

Sequence	PBM E-score
GCCAGCCA	-0.133
AGCAGCCA	-0.0376
TAATGTAA	0.124
AGAAACCC	-0.0774
CCCTGAAG	-0.234
GACTTGAA	0.145
CTCTCCTC	-0.234
ACCCGCGG	0.0279
CGTTCTAC	-0.11
AGAAAGCC	-0.115
AAAGGGAT	-0.181
GCTTACAA	0.0653
AGCCTCGA	-0.0164
AGTCACCG	0.476
TACCCGCA	0.138
CAATGGAG	-0.128
CAAGAAAA	0.0516
CTCGGGCA	0.0456
CGAGCCGA	0.0659
CTTAGTGA	0.248
AGACCATA	0.0818
GGTACCCA	0.1
AAGGGCCG	-0.32
AACATGCC	-0.132
ATTACCAA	0.114

Sequence	PBM E-score
CCGCTACA	-0.187
GCAAGTCC	-0.0536
CCGTCGCC	-0.321
GGTGAATA	-0.115
AAACAGAC	-0.0305
ACGGACTA	0.205
ATCTGATC	0.0976
CGCTTAAG	-0.0342
TAACCGAA	-0.0477
AACGTTCA	-0.336
GGTAGGAA	0.065
ATCAAAAT	0.152
CATGCGTA	-0.0672
AGGGCATC	-0.26
AATACTAA	0.131
TGCACGCA	-0.164
CCAAGAAA	0.113
CATCCAGG	-0.0695
GGAACCAC	-0.0181
AGCGTATA	0.0783
AAGCCGGC	-0.171
CACTATAA	-0.0109
ATATACTC	0.103
AGCAATTG	-0.132
ACGCAGCT	-0.113

Sequence	PBM E-score
CCAAGGTC	-0.1
GCGGTCTA	-0.0572
CGTGGTAG	-0.0852
AAATCCGA	0.00534
GTGACCTA	0.0665
CGCTGATC	-0.0444
CCCCATAC	-0.176
CCTTGTAC	-0.0911
AGCTCAGG	0.102
AGTTTTGG	-0.056
CCAACGGA	-0.28
AGCGCACT	-0.188
ACCATCGG	0.033
AACGATCT	-0.0857
GCTACTCA	0.224
ATACAGGA	-0.1
ACCGCGTA	-0.151
CTCAACTC	0.0537
AGAAACTC	0.0151
